The supplement of paper PMC12889115
This is one part of the list. Rule as the data show it: active = 25% or less and inactive = the rest. Most values come without repeats; read them as rough.

System: Salmonella enterica serovar Typhimurium SL1344
Assay: intramacrophage bacterial GFP load (SAFIRE), percent of DMSO control (% of DMSO); higher = more intracellular bacteria (less inhibition)
Conditions: 25 µM; system: infected RAW 264.7 macrophages
Experimental: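 Secondary screen of the 553 primary hits at 25 µM. (i) S. Typhimurium SL1344 grown in Mueller-Hinton broth with 0.5 µg/mL polymyxin B, OD600 read after 18 h. (ii) SAFIRE assay: RAW 264.7 macrophages infected with S. Typhimurium sifB::gfp (MOI 30); compound added 2 h post-infection; cells fixed at 18 h; GFP-positive pixel fraction per macrophage imaged by confocal microscopy and expressed as % of DMSO control.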
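Also: compounds tested were the hits of an earlier 50 µM broth growth screen of a drug-like diversity library run with polymyxin B.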

Row | SMILES | intramacrophage bacterial GFP load
1 | O=C(NC1CCOC1)c1cc(COc2ccc3c(c2)CCCC3)on1 (configuration not stated) | inactive: 197
2 | CO[C@H]1[C@H](NC(=O)c2ccccn2)c2ccccc2C12CCN(C(=O)C#Cc1ccccc1)CC2 | inactive: 133
3 | O=C1NC(CC(=O)N(Cc2ccncc2)Cc2cccc(OCCc3ccc(F)cc3)c2)c2ccccc21 (configuration not stated) | inactive: 50.6
4 | CC(Cc1ccccn1)NC(=O)CN1Cc2ccccc2OC(c2ccccc2F)C1 (configuration not stated) | inactive: 48.3
5 | Cc1cnccc1CN(C)C(=O)CC(c1ccccc1)c1ccccc1Cl (configuration not stated) | active: 3.16
6 | COC(=O)c1sccc1S(=O)(=O)N1CCCC(C(=O)c2cccc(Cl)c2)C1 (configuration not stated) | inactive: 65.8
7 | O=C(CC(c1ccccc1)c1ccc2c(c1)OCO2)N1CCCO1 (configuration not stated) | inactive: 131
8 | CC(C)S(=O)(=O)c1ncc(CN(C)Cc2cccs2)n1Cc1ccccc1F | inactive: 110
9 | Cc1cnccc1CNC(=O)C1(N(C)CCc2ccccc2)Cc2ccccc2C1 | inactive: 36.7
10 | O=C(CC1(c2cccc(F)c2)CC(=O)N(C2CCCC2)C1=O)N1CCC(C(O)c2cccs2)CC1 (configuration not stated) | inactive: 62.1
11 | COCCn1cnc2cc(NC(=O)C3CCCCC3)cc(C(=O)N3CCC(c4ccccc4)CC3)c21 | inactive: 155
12 | COc1ccccc1CNC(=O)c1c(OC)cc(=O)n2c1CCN(CC1=CC[C@H]3C[C@@H]1C3(C)C)CC2 | inactive: 114
13 | O=C1N(C2Cc3ccccc3C2)C[C@@H]2C[C@@H](c3cccn3-c3cccnc3)N3CCC[C@@]123 | inactive: 48.9
14 | O=C(NCC[C@@H]1C[C@@H]2C=C[C@H]1C2)c1cccc(OC2CCN(C(=O)C3CC3)CC2)c1 | inactive: 35.9
15 | CCN(CC)c1ncccc1CNC(=O)c1cccc(Cl)c1 | inactive: 55.6
16 | CCOC(=O)C1(CC2CC2)CCN(C(=O)C(C)Oc2cccc(Cl)c2)CC1 (configuration not stated) | inactive: 78.6
17 | Cc1cc(CN(C)c2ccc(-c3nc(-c4ccccc4F)no3)cn2)on1 | inactive: 90.7
18 | COCc1ccc(C(=O)N2CCc3c([nH]c4ccccc34)C2c2cccc(C)n2)o1 (configuration not stated) | inactive: 135
19 | O=C(NCC1CC2C=CC1C21CC1)c1cc(Cc2ccc(F)cc2)no1 (configuration not stated) | inactive: 101
20 | CN(Cc1ccccc1C(F)(F)F)C(=O)CCC1(Cc2cccc3ccccc23)CCC(=O)N1 (configuration not stated) | inactive: 125
21 | Cn1nccc1C(=O)NCC1Cc2cc(-c3cccc(OC(F)(F)F)c3)ccc2O1 (configuration not stated) | inactive: 202
22 | c1csc(CNc2nc(CN3CCc4ccccc4C3)nc3ccccc23)c1 | inactive: 109
23 | COc1cccc(CC(C2CCN(C(=O)CC3CCCCC3)CC2)N(C)C(=O)c2ccsc2)c1 (configuration not stated) | inactive: 35.6
24 | CCOC(=O)CN(C)c1ccc(-c2nc(-c3cccc(OC)c3OC)no2)cn1 | inactive: 119
25 | CC(=O)N1CCN(C(=O)CC(c2ccccc2)c2cccc(Cl)c2)CC1 (configuration not stated) | inactive: 83.3
26 | CN(C(=O)c1ccco1)C(Cc1ccc(F)cc1F)C1CCN(Cc2cc(Cl)ccc2O)CC1 (configuration not stated) | active: 1.82
27 | O=C(/C=C/c1ccccc1)N1CCCC(c2nc(-c3ccncc3)ncc2-c2ccccc2)C1 (configuration not stated) | inactive: 81.1
